Data: PMC6919601, “Identification of Plasmodium dipeptidyl aminopeptidase allosteric inhibitors by high throughput screening” (PLoS ONE, 2019)
The whole screen tested about 110,000 compounds, of which about 230 (0.21%) showed an effect of 50% or more. This is one part of the list.

molecular target: DPAP1 (Plasmodium falciparum, UniProt Q8IIJ9); assay: primary screen, percent inhibition; read by cleavage of a fluorogenic dipeptide substrate; higher = more effect of the substance; parameters: species or system P. falciparum D10 trophozoite lysates; single well
Sequence (Q8IIJ9 whole entry, looked up): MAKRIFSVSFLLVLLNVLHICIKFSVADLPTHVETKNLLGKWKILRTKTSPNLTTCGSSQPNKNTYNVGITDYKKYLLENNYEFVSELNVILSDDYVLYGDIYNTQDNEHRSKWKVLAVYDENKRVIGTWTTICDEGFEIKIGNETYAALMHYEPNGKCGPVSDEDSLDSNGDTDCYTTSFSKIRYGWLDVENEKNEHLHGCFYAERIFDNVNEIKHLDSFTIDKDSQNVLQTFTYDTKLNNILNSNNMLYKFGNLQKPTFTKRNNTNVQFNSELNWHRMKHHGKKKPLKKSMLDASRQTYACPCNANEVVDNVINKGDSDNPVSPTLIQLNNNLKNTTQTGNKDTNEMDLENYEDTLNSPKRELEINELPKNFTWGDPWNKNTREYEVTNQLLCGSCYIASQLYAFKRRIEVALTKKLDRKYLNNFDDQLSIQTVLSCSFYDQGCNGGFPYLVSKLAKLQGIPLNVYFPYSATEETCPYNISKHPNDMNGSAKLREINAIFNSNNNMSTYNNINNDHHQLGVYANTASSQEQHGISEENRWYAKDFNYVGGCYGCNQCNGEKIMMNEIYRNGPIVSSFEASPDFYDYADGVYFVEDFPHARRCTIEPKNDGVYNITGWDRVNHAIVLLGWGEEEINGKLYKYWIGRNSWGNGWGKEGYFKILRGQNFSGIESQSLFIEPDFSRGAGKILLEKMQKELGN
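Note: 30 min substrate incubation versus DMSO and 10 µM JCP410 controls.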

Row | Compound | % Inhibition @ 10 uM [%]
1 | CCOC(=O)N1CCN(c2c(NCc3ccccn3)c(=O)c2=O)CC1 | 5.09
2 | CCn1ncc(Cl)c1C(=O)Nc1cccc(C)c1C | 0.746
3 | COc1ccc(C2SC(C)C(=O)N2c2ccc(Cl)cc2)cc1 (stereo not shown) | 13.3
4 | CCCCOc1cccc(C2(C(=O)O)CCCC2)c1 | -1.97
5 | CCN1CN=C(Nc2nc(C)c3cc(C)ccc3n2)NC1 | -1.33
6 | N#CC1=C(N)Oc2[nH]nc(-c3ccccc3)c2C1c1ccc(Cl)cc1Cl (stereo not shown) | 6.42
7 | Cc1ccc(N2C(=O)CC(N3CCN(c4ccccc4F)CC3)C2=O)cc1 (stereo not shown) | 13.7
8 | COc1ccc(C2OC(=O)c3ccccc3S2)cc1 (stereo not shown) | 2.8
9 | Cc1ccc(-n2nnc(C(N)=O)c2C)cc1 | -13.4
10 | CCN1CCN(Cc2ccccc2[N+](=O)[O-])CC1 | -1.29
11 | Cc1cccc(CCNc2ncnc3onc(C)c23)c1 | -2.71
12 | Cc1ccc(CSCC(=O)NCc2cccs2)cc1 | 2.18
13 | O=C(O)c1cc(Br)cc2c3c([nH]c12)CCCC3 | 4.83
14 | Cc1cccc2c1-c1sc(C(=O)NCCc3ccsc3)cc1CO2 | -3.08
15 | CCN1CCC(Nc2ccccc2SC)CC1 | -1.82
16 | Cc1cc(NC(=O)CSc2ccccn2)no1 | 7.1
17 | COc1cccc(C(=O)Nc2cccc(C(C)=O)c2)c1 | 2.22
18 | C[C@]12Cc3nc4ccccc4c(N)c3[C@@]1(C)c1c(nc3ccccc3c1N)C2 | -0.185
19 | COc1cc(C(=O)Nc2cccc3cccnc23)cc(OC)c1OC | -2.46
20 | CCC1CCCCN1C(=O)c1cnn2c(C(F)F)cc(-c3ccccc3)nc12 (stereo not shown) | 5.65
21 | CNC(=O)c1c(NC(=O)c2cccs2)sc2c1CCC(C(C)(C)C)C2 (stereo not shown) | -2.8
22 | CC/N=c1\c(NS(=O)(=O)c2c(C)nc3sccn3c2=O)c(O)oc2ccccc12 | 10.8
23 | COc1ccc(CC2(NC(=O)c3ccc(Cl)cc3)N=C3C(C)=CC=CN3C2=O)cc1 (stereo not shown) | -6.85
24 | Cc1ccc(C)c(OCC(=O)Nc2ccc(S(=O)(=O)N3CCCC3)cc2)c1 | -0.891
25 | O=S(=O)(c1cccc2nsnc12)N(CCOc1ccccc1)C1CCCCC1 | -1.42
26 | CCOc1cccc(NC(=O)c2ccc(Cl)cc2)c1 | 3.49

Row | Compound | % Inhibition @ 10 uM [%]
27 | COc1cc(C2C(C(=O)c3ccccc3)=C(O)C(=O)N2CCN)ccc1O (stereo not shown) | 8.01
28 | O=C(CCc1nc2cccnc2n1-c1ccccc1)N1CC=C(c2ccccc2)CC1 | 3.2
29 | O=C(NCc1ccc(F)cc1)[C@H](Cc1ccccc1)N1Cc2ccccc2C1=O | -4.1
30 | CO/C(O)=C1\C(C)=NC2=C(C(=O)CCC2)C1c1cccc(Cl)c1Cl (stereo not shown) | 11.6
31 | Cc1ccc2nc(NS(=O)(=O)c3ccc(Cl)cc3)c(Nc3c(C)n[nH]c3C)nc2c1 | -5.67
32 | CN(c1ccccc1C(N)=O)S(=O)(=O)c1ccccc1 | 1.86
33 | CC(NC(=O)C(O)(c1ccccc1)c1ccccc1)C(=O)O (stereo not shown) | 0.248
34 | COc1ccccc1CNC1CCCCCC1 | -1.21
35 | Cc1cc(C)c(S(=O)(=O)N2CCN(C/C=C/c3ccccc3)CC2)c(C)c1 | -5.32
36 | Cc1ccc2oc(-c3cccc(NC(=O)c4ccccc4)c3)nc2c1 | -2.03
37 | COc1cccc(C2Oc3ccc(Cl)cc3C3CC(c4ccco4)=NN32)c1 (stereo not shown) | 19.2
38 | COC(=O)c1ccc(-c2ccc(/C=C3/C(=N)N4N=C(C(C)C)SC4=NC3=O)o2)cc1 | -8.7
39 | Cc1cccc2c1cnn2C(=O)CCC(=O)N1CCN(C2CCCCC2)CC1 | -1.92
40 | CC(NC(=O)CCNS(=O)(=O)c1ccc(Br)cc1)c1ccccc1 (stereo not shown) | -2.14
41 | O=C1CCCN1CCC12CC3CC(CC(C3)C1)C2 | 2.12
42 | O=C(c1cc(C2CC2)[nH]n1)n1ccnc1 | -4.66
43 | Cc1cc(C(=O)O)c2c(C)nn(-c3ccccc3Cl)c2n1 | -3.06
44 | Cc1cc(C)c2c(CC(=O)Nc3sc4c(c3C(=O)NCc3cccnc3)CCCC4)coc2c1 | 1
45 | CCOc1cccc(OCC)c2c(C)[n+](Cc3ccccc3)c(C)c1-2 | -2.65
46 | CC(C)CCOc1ccc(C(=O)C(CN2CCOCC2)c2ccccc2)cc1 (stereo not shown) | -2.37
47 | CC1=NN(C(=O)c2cccc(Cl)c2)C(O)(c2cccnc2)C1 (stereo not shown) | -1.28
48 | COc1cccc(N2C(=O)CC(N3CCN(C/C=C/c4ccccc4)CC3)C2=O)c1 (stereo not shown) | -3.84
49 | CCN(CC)c1ccc(NC(=O)c2ccccc2OCC(=O)N2CCc3ccccc32)cc1 | 0.145
50 | Cc1ccc2ncc(S(=O)(=O)c3ccccc3)c(N3CCOCC3)c2c1 | -6.09
51 | Cc1ccc(CS(=O)Cc2ccc(C(=O)NCCCN3CCCC3)o2)cc1 (stereo not shown) | -0.47
52 | Cc1nc2cc(CC(=O)O)ccc2s1 | 0.0345

Row | Compound | % Inhibition @ 10 uM [%]
53 | COc1ccc(C2N(C)c3ccccc3N2C)cc1OC | 1.96
54 | COc1cc(CN2CCN(c3ccc(F)cc3)CC2)cc(OC)c1O | 0.708
55 | O=C(NC(C(=O)c1ccccc1)N1CCOCC1)c1ccccc1 (stereo not shown) | -2.62
56 | CC(C)CC(C(=O)NCC#N)c1cccc(-c2ccc3[nH]ccc3c2)c1 (stereo not shown) | 8.71
57 | CSc1ncc(Cl)c(C(=O)N(Cc2cccs2)C2CCS(=O)(=O)C2)n1 (stereo not shown) | 6.76
58 | Cc1ccc(OC(C)C(=O)Nc2ccccc2C)cc1 (stereo not shown) | 2.03
59 | O=C1OC(c2ccccc2)=N/C1=C\c1cccc(Cl)c1Cl | 4.35
60 | COC(=O)c1ccc(O)c(N2C(=O)c3ccc(C(=O)O)cc3C2=O)c1 | 12
61 | CCNC(=O)N1c2ccc(CC)cc2C(C)=CC1(C)C | -2.94
62 | Cc1ccc2nc(NC3=NCN(Cc4ccccc4)CN3)nc(C)c2c1 | -4.62
63 | COc1ccc(OCCN2CCCC2)cc1 | 3.82
64 | CC1CCCC(N2CCN(c3ccccc3F)CC2)C1 (stereo not shown) | 0.472
65 | C=CCOc1ccc(C2C3=C(CCCC3=O)N(CC(=O)O)C3=C2C(=O)CCC3)cc1OCC | -1.36
66 | CCOc1ccc(Br)cc1/C=C(\C#N)c1nc2cc(C)ccc2[nH]1 | -0.693
67 | CC1CC2c3cccc(C(=O)O)c3C(=O)N2c2ccccc21 (stereo not shown) | -0.519
68 | COc1ccc(OC)c(CN2CCC3(C=Cc4ccccc43)CC2)c1 | -1.64
69 | CC1=CC2=NC(=O)/C(=C\c3ccc(O)cc3)C(=N)N2O1 | -1.43
70 | CCn1cc(CNC(=O)COc2ccc(Cl)cc2Cl)cn1 | -1.96
71 | Cc1cccc(OC(C)C(=O)N2CCCc3ccccc32)c1 (stereo not shown) | -0.598
72 | Cc1ccc(Cn2ncc3c(N4CCOCC4)ncnc32)cc1 | 3.21
73 | CN1CCC(N(C)Cc2ccc(Br)o2)CC1 | -4.5
74 | CCN(CC)C(=O)Nc1cccc(Cl)c1 | -0.192
75 | c1ccc(CN2CCC(NCC(c3ccccc3)c3ccccc3)CC2)cc1 | -0.0953
76 | COc1ccc(C(=O)C2=C(O)C(=O)N(CCCN(C)C)C2c2ccc(C(C)C)cc2)cc1 (stereo not shown) | 5.37
77 | COC(=O)N1CCN(c2ccccc2OC)CC1 | -6.36
78 | CCCN(CCC)C(=O)c1ccc2c(c1)OCO2 | 0.52

Row | Compound | % Inhibition @ 10 uM [%]
79 | O=C(COc1ccc(Cl)cc1Cl)N1CCC(CN2C(=O)c3cccc4cccc(c34)C2=O)CC1 | 7.75
80 | CCN(Cc1ccccc1)c1sc(S(C)(=O)=O)nc1S(=O)(=O)c1ccc(C)cc1 | -0.735
81 | Cc1nnc(NC(=O)CSc2nc3c(c(=O)n2C)SCC3)s1 | 1.39
82 | Cc1c(CN2CCN(c3ccccc3)CC2)c(=O)n(-c2ccccc2)n1C | 0.217
83 | CCOC(=O)c1c[nH]nc1/N=C(\C)c1c(C)nn(-c2nc3ccccc3s2)c1O | -3.04
84 | COc1ccc(S(=O)(=O)Nc2ccc(OC)c(OC)c2)cc1 | -10.6
85 | COc1cc2nn3c(C)cc(O)nc3c2cc1OC | -3.53
86 | CNC(=O)C1=C(C)N=C(S)NC1c1ccc(OC)c(OC)c1 (stereo not shown) | 3.72
87 | Cc1ccc2cc3cc(C(=O)NC4CCN(Cc5ccccc5)CC4)oc3nc2c1 | -5.22
88 | COc1ccc(OCC(O)Cn2c(S)nc3c2c(=O)[nH]c(=O)n3C)cc1 (stereo not shown) | 6.78
89 | COc1ccc(OC)c(C2=NOC(C(=O)Nc3cccnc3)C2)c1 (stereo not shown) | 1.24
90 | CCOc1ccccc1N1CCN(C(=O)c2ccccc2C)CC1 | 1.4
91 | O=c1cc2nc(-c3ccco3)nc(SCc3ccc(Br)cc3)n2[nH]1 | -2.48
92 | CC1CN(C(C)Cc2ccccc2F)CC(C)O1 (stereo not shown) | -1.75
93 | O=C(O)CSc1nc2ccccc2n1Cc1ccccc1 | 0.35
94 | COC(=O)c1ccccc1-n1cc2c(c1-c1ccccc1)c(=O)n(C)c(=O)n2C | 3.62
95 | COCc1cc(C)nc2sc(C(=O)Nc3cccc(C)c3)c(N)c12 | 3.21
96 | CN(CP(=O)(O)CCc1ccccc1)S(C)(=O)=O | -5.01
97 | Cc1ccc(Cl)cc1-n1nnnc1C1(N2CCCC2)CCCCC1 | -0.969
98 | Cc1ccc(-c2nn(-c3ccccc3)cc2CN(Cc2ccccc2)C(=O)CCC(=O)O)o1 | -9.37
99 | O=C(Cn1nc(-c2ccc(Cl)cc2)ccc1=O)N1CCC2(CC1)OCCO2 | -1.79
100 | Cc1cc(NC(=O)CSc2nc3ccsc3c(=O)n2Cc2ccccn2)[nH]n1 | -2.03
101 | Cc1nn(Cc2ccc(C(=O)NC3C4CC5CC(C4)CC3C5)o2)c(C)c1Cl (stereo not shown) | 2.46
102 | COCCNC(=O)Cn1nc(-c2ccc(C)cc2)ccc1=O | -3.22
103 | Cc1oc(-c2ccc(Cl)cc2)nc1CN1CCC(C(=O)NCCC2=CCCCC2)CC1 | -4.71
